Publication PMC4336329 (PLoS ONE, 2015)
Out of some 310,000 compounds screened, about 2,200 (0.71%) showed an effect of 50% or more. Effects have a minus sign here. Some of the results follow.

Target: human ether-à-go-go-related gene (hERG) potassium channel (human, UniProt Q12809)
Experiment: primary screen, population patch clamp on CHO cells stably expressing hERG

human ether-à-go-go-related gene (hERG) potassium channel, sequence (Q12809 whole entry, looked up): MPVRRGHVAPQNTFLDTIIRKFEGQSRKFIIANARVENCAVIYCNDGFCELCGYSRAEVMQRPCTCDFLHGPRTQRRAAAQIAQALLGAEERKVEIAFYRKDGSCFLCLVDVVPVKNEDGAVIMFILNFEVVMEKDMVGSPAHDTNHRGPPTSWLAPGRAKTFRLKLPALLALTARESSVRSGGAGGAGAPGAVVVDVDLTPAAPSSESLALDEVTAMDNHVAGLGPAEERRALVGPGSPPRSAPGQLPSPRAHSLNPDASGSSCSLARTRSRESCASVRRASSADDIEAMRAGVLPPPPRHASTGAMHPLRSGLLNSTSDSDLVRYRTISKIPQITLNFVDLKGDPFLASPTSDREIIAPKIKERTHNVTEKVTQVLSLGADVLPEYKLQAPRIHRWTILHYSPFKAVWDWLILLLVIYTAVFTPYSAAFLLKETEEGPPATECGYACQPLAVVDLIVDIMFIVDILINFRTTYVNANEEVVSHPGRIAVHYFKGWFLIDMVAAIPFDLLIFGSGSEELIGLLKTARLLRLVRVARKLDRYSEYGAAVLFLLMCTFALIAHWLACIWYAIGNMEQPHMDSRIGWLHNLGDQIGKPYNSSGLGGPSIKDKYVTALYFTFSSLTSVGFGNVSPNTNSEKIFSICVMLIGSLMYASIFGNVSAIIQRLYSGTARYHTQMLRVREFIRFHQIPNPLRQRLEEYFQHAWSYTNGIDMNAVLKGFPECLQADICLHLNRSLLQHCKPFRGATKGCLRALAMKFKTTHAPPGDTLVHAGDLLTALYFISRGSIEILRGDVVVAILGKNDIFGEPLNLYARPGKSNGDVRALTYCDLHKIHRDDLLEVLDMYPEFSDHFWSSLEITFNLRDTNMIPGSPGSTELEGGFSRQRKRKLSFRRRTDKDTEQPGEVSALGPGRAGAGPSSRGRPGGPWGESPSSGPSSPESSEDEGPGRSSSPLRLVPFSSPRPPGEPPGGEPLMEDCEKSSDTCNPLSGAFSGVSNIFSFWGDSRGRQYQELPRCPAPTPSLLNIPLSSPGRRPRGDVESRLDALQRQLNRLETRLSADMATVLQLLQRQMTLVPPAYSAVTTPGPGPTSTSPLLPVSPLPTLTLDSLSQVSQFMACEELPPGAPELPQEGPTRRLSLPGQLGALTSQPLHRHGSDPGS

SMILES	hERG current change (%, negative = inhibition) at 1uM [%]
COc1cc(OC)cc(-c2nnc(SCC(=O)N3CCCc4ccccc43)o2)c1	5.2
C1=NCCc2c1[nH]c1ccccc21.[O-][Cl+3]([O-])([O-])O	12.8
CCn1nc(C)c(CNC(=O)CC2C(=O)NCCN2Cc2ccc(C)o2)c1C (stereo not drawn)	14.4
Cc1ccc(-c2cc(-c3ccccc3)c(C#N)c(N)n2)o1	11.2
COc1ccc([C@H]2/C=C\CN(S(=O)(=O)/C=C/c3ccccc3)[C@@H](C)C(=O)N2Cc2ccc(F)cc2)cc1	-47.4
O=C(Nc1ccccn1)c1ccc(S(=O)(=O)c2ccc(Cl)cc2)cc1	14.3
Cc1ccc(-n2c(Cc3cccn3C)nnc2SCC(=O)Nc2nnc(C)s2)cc1	-0.247
COC(=O)C1(C(=O)OC)NOC2C(=O)N(c3ccc(Cl)cc3Cl)C(=O)C21 (stereo not drawn)	-1.11
O=C(Nc1ccccc1)NC1(C(=O)N2CCC(O)CC2)CCCCC1	-20.6
Cc1ccc(OCC(O)CN2CCOCC2)c(C)c1.Cl (stereo not drawn)	12.6
NC1=NC(=O)/C(=C/c2ccccc2OS(=O)(=O)c2ccc3ccccc3c2)S1	11.9
O=C(/C=C/c1ccc2c(c1)OCO2)N1CCN(c2n[nH]c(=O)[nH]c2=O)CC1	3.13
CC(=O)C(C)Sc1nnc(-c2ccccc2F)n1C1CC1 (stereo not drawn)	18.9
CCCc1cc(=O)[nH]c(SCC(=O)c2c[nH]c3ccccc23)n1	20.1
Cc1ccc(C(=O)CSc2nnc(-c3ccco3)n2Cc2ccccc2)cc1	-0.102
Cc1ccc(NS(=O)(=O)c2cccc(C(=O)NCCCn3ccnc3)c2)cc1	15.2
COC(=O)Cn1cc(C=C2C(=O)NC(=O)NC2=O)c2ccccc21	12.5
CC/C(=N/NS(=O)(=O)c1ccc(Cl)cc1)c1ccc(O)cc1	4.09
Cn1c(N)c(C(=O)COC(=O)C2CCCCC2)c(=O)n(C)c1=O	4.03
CCCN1Cc2cccc(C(=O)Nc3ccc(CC)cc3)c2C1=O	8.47
CC(C)C(OC(=O)c1ccco1)C(=O)NCc1ccccc1 (stereo not drawn)	9.05
COc1cc(N(C)C)c([N+](=O)[O-])cc1C(=O)N1CCN(Cc2ccccc2)CC1	14.9

SMILES	hERG current change (%, negative = inhibition) at 1uM [%]
CC1CN(C(=O)CCn2c(=O)oc3ccccc32)CC(C)O1 (stereo not drawn)	5.2
CC(=O)N/C(=C/c1cccnc1)C(=O)Nc1ccc(Cl)cc1	-3.89
C=CCOc1ccc(C2C(C#N)=C(N)N(N(C)C)C3=C2C(=O)CCC3)cc1 (stereo not drawn)	0.182
CS(=O)(=O)Nc1cccc(-c2cnc3ccccc3n2)c1	-43.8
Cc1ccc(S(=O)(=O)Nc2ccccc2CNc2ncc(Br)cc2Br)cc1	10.2
COC(CNC(=O)C1CCN(S(=O)(=O)c2cccc3nsnc23)CC1)OC	17.2
COc1ccc2c(c1)c(C(=O)CN1CCC3(CC1)OCCO3)c(C)n2C	7.41
CCOC(=O)C1CCCN(C(=O)c2ccc(S(=O)(=O)NCc3ccco3)cc2)C1 (stereo not drawn)	5.98
Nc1nc(NCCOCCO)nc(Nc2cccc(F)c2)c1[N+](=O)[O-]	6.22
CC(=O)N(c1ccc2oc(=O)sc2c1)S(=O)(=O)c1cccs1	1.51
CCCOc1ccc(C(CC(=O)O)NC(=O)C23CC4CC(CC(C4)C2)C3)cc1 (stereo not drawn)	14.9
CCCC1(CCC)C(=O)NC(=NCCc2ccc(OC)c(OC)c2)NC1=O	2.39
CCCCN(C)C1CCN(C(=S)Nc2ccc(OC)cc2)CC1	-7.98
Cc1c(C(=O)N2CCN(C3CCS(=O)(=O)C3)CC2)oc2c(F)cccc12 (stereo not drawn)	10.7
CCOC(=O)C1CCN(C(=O)c2cccc(N3C(=O)NC4CC3(C)Oc3ccc(C)cc34)c2)CC1 (stereo not drawn)	16.5
Cc1ccc(C2=NC(C)(C)NC2=O)cc1	-0.529
O=C(Nn1cnc2ccccc2c1=O)c1ccc(Cl)c([N+](=O)[O-])c1	12.6
O=C(NC1CCCCC1)c1ccc(Cl)c(NC(=O)c2ccccc2F)c1	9.11
CC(C)NC(=S)Nc1ccc2cn[nH]c2c1	7.62
O=C(c1ccccc1Oc1ccc(C(F)(F)F)cc1[N+](=O)[O-])N1CCOCC1	7
Cc1ccc(NS(=O)(=O)c2ccc(C(=O)N3CCN(c4ncccn4)CC3)cc2)cc1	1.36
Cc1cccc2cc(C#N)c(SCC#N)nc12	21

SMILES	hERG current change (%, negative = inhibition) at 1uM [%]
O=C(Nc1cccn2ncnc12)c1ccc(Cl)cc1	-4.04
Cc1nc2ccccc2c(=O)n1/N=C/c1ccc(O)cc1O	18
CCNC(=O)n1cc(-n2cncn2)c(-c2ccccc2)n1	9.41
CNC(=S)N(CCCN(C)C)Cc1cc2cc3c(cc2[nH]c1=O)OCCO3	13.9
COc1ccc(CCNC(=O)CN2C(=O)CCSc3ccccc32)c(OC)c1	5.89
Cc1cccc(CCNC(=O)CCc2nc(-c3ccccc3F)no2)c1	6.73
Cc1ccc2nc(NC(=O)CN3CCOCC3)sc2c1	-0.26
O=C(NCCCc1ccccc1)C(=O)c1c[nH]c2ccccc12	12.6
O=C(NCCc1ccccc1)C1CCC(CNc2nc(=S)[nH]c3ccccc23)CC1 (stereo not drawn)	6.06
O=C(Cn1c(-c2ccccn2)nc2ccccc21)NCCN1CCOCC1	2.76
COCCn1nnnc1C(C(C)C)N(Cc1cccnc1)Cc1ccccc1Cl (stereo not drawn)	-7.04
COC(=O)c1ccc2c(=O)[nH]c(COC(=O)c3cccc(S(=O)(=O)N4CCOCC4)c3)nc2c1	17
COc1ccc(-c2noc(CSc3nc4ccccc4c(=O)n3-c3ccccc3)n2)cc1	1.58
Nc1nc(NCc2ccco2)nc(NCCO)c1[N+](=O)[O-]	10.8
O=C1Nc2cc(C(=O)N3CCN(c4ccccn4)CC3)ccc2S/C1=C\c1ccccc1	6.63
CC(=O)OCc1c(C(F)(F)F)nn(C)c1SCc1ccc(Cl)cc1	15.1
CC(C)Oc1ccc(/C=N/NC(N)=S)cc1	4.39
CN(C)CCNC(=O)/C=N/O	15.9
O=C(Nc1ccc(Cl)cc1C(=O)NCC1CCCO1)c1ccco1 (stereo not drawn)	-0.31
CC(C)CN(C(=O)COC(=O)CSc1ccccc1F)c1c(N)n(Cc2ccccc2)c(=O)[nH]c1=O	11.7
COc1ccc(NS(=O)(=O)c2ccc(Cl)c(C(=O)O)c2)cc1S(=O)(=O)N1CCCCC1	7.71
COc1ccc2c(-c3ccccc3)cc(SCC(=O)NC3CCS(=O)(=O)C3)nc2c1 (stereo not drawn)	11

SMILES	hERG current change (%, negative = inhibition) at 1uM [%]
O=S(=O)(c1ccc(F)cc1)N1CCN(c2ccccn2)CC1	5.17
Cc1nnc(NC(=O)c2ccc(S(=O)(=O)N(C)Cc3ccccc3)cc2)o1	2.16
COc1ccc(-c2c(C#Cc3ccsc3)c3cc(-c4ccc5c(c4)OCO5)ccc3n2C)cc1	20
CCn1c(SCC(=O)Nc2ccc(N(C)C)cc2)nnc1-c1ccco1	10.4
O=c1cc(-c2ccccc2)nc(N2CCN(Cc3ccc4c(c3)OCO4)CC2)[nH]1	-0.427
COc1ccc(C(=O)NC(C)c2csc(C)n2)cc1OC1CCN(C(C)=O)CC1 (stereo not drawn)	15.1
O=C(CCC1CCCN(C(=O)c2ccc3[nH]ccc3c2)C1)N1CCN(c2ccccn2)CC1 (stereo not drawn)	18.5
COc1ccc(CNC(=O)N[C@@H](CC(C)C)C(=O)O)cc1OC	5.69
O=C(NCC(c1ccco1)N1CCOCC1)c1ccc(Cl)cc1 (stereo not drawn)	1.07
NC(=O)[C@@H]1CCCCNc2c(I)cc([N+](=O)[O-])cc2C(=O)N[C@@H](CCC(=O)O)C(=O)N[C@@H](CO)C(=O)N1	11.2
COc1cc(NC(=O)CSc2nnc3ccccn23)cc(OC)c1	2.78
COc1ccc(CN2CCNC(=O)C2CC(=O)N(C)Cc2nccs2)cc1OC (stereo not drawn)	5.26
Cc1cc(C)cc(NC(=O)N2CCC(c3nc4ccccc4o3)CC2)c1	2.63
COc1ccc(OCC(O)CN2CCN(c3ccc(OC)cc3)CC2)cc1.Cl (stereo not drawn)	-2.16
Oc1ccc(N=Cc2ccc(OCc3ccccc3)cc2)cc1	13.9
O=C(Nc1ccc([N+](=O)[O-])cc1)c1cn(-c2ccccc2)nc1-c1cc2ccccc2o1	11.9
Nc1ccc(NC2C[C@@H](C(=O)O)NC2=O)cc1 (stereo partly drawn)	10.6
CCOc1ccc(NC(=O)Nc2nnc(CC(=O)NCc3ccccc3)s2)cc1	16.1
CCOC(=O)N1CCC(N2Cc3cccc(C(=O)NCc4ccc5c(c4)OCO5)c3C2=O)CC1	11.5
Cc1ccccc1Nc1nc(N)nc(CSc2ccccc2)n1	0.1
COC(=O)CCC(=O)NC(=S)Nc1ccc(S(=O)(=O)Nc2cc(C)on2)cc1	18.2
